The record followed here is the RNAGym collection of RNA variant scans (doi:10.7554/elife.90254).

Read counts are not given, so values of variants with three or more changes are uncertain.

The labels stand for the following.
B1: LINE1-full (parent)
chain: UACGUAGGUGGUUUUCCCCUGAUAGUGCUAAGGGGGCCUGGAAGUUUGGACUGGGCAGAGCUCAACACAGCGUGGCAAAGUGGCUGUGGCUAGACUGCCUCUCUGGAUUCCUCGUCACUCAGCAGGGCAUCUCUGAGAGAAAUGCC

The variants in this series derive from B1. The series can be described thus: self-cleavage, relative activity (ratio to wild type); higher = more cleavage; in vitro, sequencing; the parent is a self-cleaving ribozyme.
Regarding A69G U102A U143C, the self-cleavage amounted to 0.26. To A22G U47A U134A belongs 0.37.

For the variant U12A A78G U102A, the self-cleavage worked out at 0.21. Then A2G A78G A140G, with 0.77; and A2U U45C A79U A121G U143C, with 0; and A6U U13C A43U, with 1.19. Then A42G G72A A138U A141G, with 1.74; and U13C U87C C99U, with 0.17. For U47A G49A G125U, the self-cleavage came out at 0.76. Consider U9A A24G U39A C61U, for which the self-cleavage was 0. To A6U U109G U112C belongs 1.38. To U26A A31U A42G A43G U102C belongs 0.84. Then U23C A129G U134C, with 1.79. As to G34A U85C C145U, the self-cleavage came to 0.12. As to C37G A57G A94U A138U A140G A142G, the self-cleavage turned out to be 0.04. Then U45C A59G A77U, with 0.04; and U20A U108C A136G A142G, with 1.53; and A31U C37G U47G C56A U100C U134C, with 0.29. Regarding U20G C37G U47C U143C, the self-cleavage is 0.68. To U5C U46C A107U U112G A124G belongs 1.02; to A31C G36A U81A U109C, 1.61. Then U20C A30G U47C A121U, with 1.13; and U47C C51A U62C, with 0.06; and G10A A31U C128G, with 0.66. Then C3A U9A A92G A117U A136G, with 0.13. C56A U73C U108C: the self-cleavage was determined as 0.12.

As for A77U U96C U112C U115C U134A, the self-cleavage was 0. To U112C A117G A141G belongs 0.88. Then U52C C98U C101U A136G, with 0.81; and U12C U130C C146U, with 1.5.

With A67G C84G U100C C120U, the self-cleavage is 0.05. To U47A U134C A140G belongs 2.22; to U13C U81A U100C, 2.01. Then U62C G106A A121U U134G, with 0.03; and C63U U81C U100A A129G, with 0.26. Regarding U9A A67G C128U, the self-cleavage is 0.39.

Take U52C A64U G83A: the self-cleavage amounted to 0.12. Then A78U U109C U115C, with 2.04; and U39G U45C A142G, with 1.62. Then U1C A22G G36C A129G U132C, with 1.15; and A24G U39C U73A A117G, with 0.42. To A22G U47A A117G belongs 0.82.

On to U12C U134A A136G, for which the self-cleavage was found to be 1.46.

U14C A77U A79G G88A A117G C133A U143C: the self-cleavage came out at 0.03. Then G32A A64U U115C, with 0.41; and U9C U13C U39C A64U, with 0.65. Take U13C A42U A77C: the self-cleavage was 1.01. To C28G U62C C146G belongs 0.22; to G32A A77G U96A, 0.07; to U5C A78G U109A U130C, 1.25. To A22U U73A U100C A124G belongs 2.56.

A2G U9C A50G: the self-cleavage turned out to be 0.77.

For the variant U39C A136G A140G, the self-cleavage turned out to be 1.3. To A69G U102A A138G belongs 0.26; to A65G C66U A78G U96C A138G, 0.01.

On to G11U G72U U115A, for which the self-cleavage is 1.29. To A22G A69U U115C belongs 0.12; to U14C U100G U130C, 0. Consider C18A U47C A57G, for which the self-cleavage is 1.41. Then A6G A22G A78G, with 1.84. To A69U U112C A124G belongs 0.

On to A22G C28G U81A U134A, for which the self-cleavage was determined as 0.95. Take U62C U119C G126A: the self-cleavage turned out to be 0.06. Then C16U U85C C99U A121G, with 0; and U23C U45A U47C G54A U130C, with 1.18. Turning to U26C G32A U39C, the self-cleavage is 0.9. Then U14C G25C U85C C113U U130C, with 0.08; and U20C U81C U132C, with 1.23. To U5C C68G A117U belongs 0.05; to U23C A24G A138G, 1.43; to A22G U81A U112C, 2.01. Then U9C C19U A30G U81G, with 1.27; and A31G U81C A140G, with 0.84.

Turning to A59G U81C U132C, the self-cleavage was 0. With U62A A65G A136U, the self-cleavage was found to be 0.08.

A65U G75A U100A: the self-cleavage came to 0.05. Then U23C U45G A142G, with 0.83; and A30G C51A U62A, with 0.07. To G35A U46C A77G belongs 1.96.

For the variant A50G A57G A92G A140U U143A, the self-cleavage came out at 0.57. To A64G U109A C131U A140G belongs 0.32; to U14A G27A A65G, 0.02; to U20C A42G U85A U108A, 0.

As for A22G U112A G127A, the self-cleavage stood at 1.71.

Consider U13C C37U U52G C99G, for which the self-cleavage came to 0.24.

As to C18U U62C A136G C145A, the self-cleavage amounted to 0. To U15C A67U A92G belongs 0.06. Then U20C A42G U143A, with 0.83; and C16U A78G U102C U104C, with 2.12; and A24G U39A A69G A142G, with 0.77. For U104C C110U U119A, the self-cleavage was found to be 1.53. To C63U A92C U119C G127A belongs 0.01; to U20C U96C A117G A129G A141U, 0.54; to U46C C56U U81A U96C, 0.03. With A64G C95U C145G, the self-cleavage was determined as 0.07. Then U39C A94G A138U, with 0.22; and U26A U73A U119A, with 0.83. Then U46C U108A U130C, with 1.06. For the variant G11A G72A U102C A129G, the self-cleavage was 1.33. Consider U26C C37A G135A U143C, for which the self-cleavage was 0.99. To U1C U47A G75A belongs 0.34; to U9A A59G U112C, 0.04; to A2G G72C U130C, 1.19. To U12G U15C U115A belongs 2.11; to U1C A124U A140G U143C, 0.83.

As to A6G A30C A65G U134A, the self-cleavage turned out to be 0.14. As to A22G G35A U45C A142G, the self-cleavage came out at 0.65. In the case of A2C U26C A107G A124G U143C, the self-cleavage is 0. As for A79G G86C U143A, the self-cleavage was 0.16.

Turning to U13C A59G U102C, the self-cleavage is 0.

Regarding A42G A64G A121G U143A, the self-cleavage turned out to be 0. On to U85C U100C A117G, for which the self-cleavage is 0.

As to U39A A42G G44C A77G, the self-cleavage is 1.73. To U5A U14C C61U U108A A117G belongs 0.1. To U12C U23C U62C A64C U143C belongs 0.18; to A30G U85C U100A A117U A140G, 0. Then U73C C95A A129G, with 0.14. Regarding U14C U62A A140G, the self-cleavage is 0.21. As for A67G G72A U143C, the self-cleavage came to 0.52.

For the variant A22C U85A G105C, the self-cleavage came out at 0.06. Then U119A C131U A140G, with 1.99. For the variant U12C A30G G33A, the self-cleavage turned out to be 0.74. To U46C U47C C101U belongs 0.47. To U13C U26A A138G A141G belongs 0.71; to C38U U47A A67U A142G, 0.07; to A79G U96C C111U U115C, 0.14. With U26A U39C C123A, the self-cleavage came to 0.83. For the variant U26C U47A U100C A121U U143C, the self-cleavage turned out to be 2.25. To G36A U112A A142G U143A belongs 1.13; to U26C C113U A117G, 2.04; to A24G C71U A77U U115C, 0.98.

In the case of U39C A43G U132A, the self-cleavage worked out at 0.9. To U23C U26C A59G G75A U85C belongs 0; to A64G A78U U87A U102C, 0.09. Regarding U47C U112A U132C, the self-cleavage worked out at 1.93. As for U9A U14A U112C, the self-cleavage stood at 1.

On to G55C U87A A142G, for which the self-cleavage amounted to 0.02. To G36A U87C U100C U104A belongs 0.21; to A78U U81A U112C, 2.19; to U29C U134A U143C, 0.8.

In the case of A30G U109C G135A, the self-cleavage came out at 1.23. Regarding U45C A129G G139U C145U, the self-cleavage turned out to be 2.51.

Regarding C76U A77G U112C A140G, the self-cleavage was 1.27. To U1C G4C A42C U52A A69G A107G belongs 0; to U5C U13C A142G, 1.21. To U13C G74A A142G belongs 1.12; to U26C U46C G48U A59G A136G, 0.07. Then U12C U73C C99U U130A, with 1.15. Consider C3A G11U U45C, for which the self-cleavage amounted to 2.04.

In the case of U9C A57G A64G A117U, the self-cleavage is 0.55. To U52C U73C U96A U109C C146A belongs 0.77.

U9A A22G A43G A79G: the self-cleavage amounted to 0.79.

As for U12G G89C U91C A141G, the self-cleavage amounted to 0.

For U9C A42G U45A, the self-cleavage is 1.49. Then A22U U96A A129U, with 0; and C3U U100A U130C, with 0.38; and U9A U20C U100A U115C U119C A142G, with 1.02. To U9A U47A U134C A136G belongs 0.86. Then U12C A79G U85A A136G A141G, with 0.24. Consider G4A U23C U104A U132C, for which the self-cleavage was determined as 0.84. Then U29A U112C A124G, with 1.08. Turning to A2G C84U A129G, the self-cleavage amounted to 0.28.

For A78G U134G C145U, the self-cleavage worked out at 1.32.

Consider A22U G86A U102C U132A, for which the self-cleavage worked out at 0.15.

A65G U85C U100C: the self-cleavage amounted to 0.31. Then G35C A69G A92G, with 0.2; and U12C U52C U119C, with 2.
